Measurements: publication PMC4336329 (PLoS ONE, 2015)
Among all 310,000 compounds or so, about 2,200 (0.71%) showed an effect of 50% or more. Effects have a minus sign here. This is one part of the list.

target: human ether-à-go-go-related gene (hERG) potassium channel (human, UniProt Q12809); assay: primary screen, population patch clamp on CHO cells stably expressing hERG
Sequence (Q12809 whole entry, looked up): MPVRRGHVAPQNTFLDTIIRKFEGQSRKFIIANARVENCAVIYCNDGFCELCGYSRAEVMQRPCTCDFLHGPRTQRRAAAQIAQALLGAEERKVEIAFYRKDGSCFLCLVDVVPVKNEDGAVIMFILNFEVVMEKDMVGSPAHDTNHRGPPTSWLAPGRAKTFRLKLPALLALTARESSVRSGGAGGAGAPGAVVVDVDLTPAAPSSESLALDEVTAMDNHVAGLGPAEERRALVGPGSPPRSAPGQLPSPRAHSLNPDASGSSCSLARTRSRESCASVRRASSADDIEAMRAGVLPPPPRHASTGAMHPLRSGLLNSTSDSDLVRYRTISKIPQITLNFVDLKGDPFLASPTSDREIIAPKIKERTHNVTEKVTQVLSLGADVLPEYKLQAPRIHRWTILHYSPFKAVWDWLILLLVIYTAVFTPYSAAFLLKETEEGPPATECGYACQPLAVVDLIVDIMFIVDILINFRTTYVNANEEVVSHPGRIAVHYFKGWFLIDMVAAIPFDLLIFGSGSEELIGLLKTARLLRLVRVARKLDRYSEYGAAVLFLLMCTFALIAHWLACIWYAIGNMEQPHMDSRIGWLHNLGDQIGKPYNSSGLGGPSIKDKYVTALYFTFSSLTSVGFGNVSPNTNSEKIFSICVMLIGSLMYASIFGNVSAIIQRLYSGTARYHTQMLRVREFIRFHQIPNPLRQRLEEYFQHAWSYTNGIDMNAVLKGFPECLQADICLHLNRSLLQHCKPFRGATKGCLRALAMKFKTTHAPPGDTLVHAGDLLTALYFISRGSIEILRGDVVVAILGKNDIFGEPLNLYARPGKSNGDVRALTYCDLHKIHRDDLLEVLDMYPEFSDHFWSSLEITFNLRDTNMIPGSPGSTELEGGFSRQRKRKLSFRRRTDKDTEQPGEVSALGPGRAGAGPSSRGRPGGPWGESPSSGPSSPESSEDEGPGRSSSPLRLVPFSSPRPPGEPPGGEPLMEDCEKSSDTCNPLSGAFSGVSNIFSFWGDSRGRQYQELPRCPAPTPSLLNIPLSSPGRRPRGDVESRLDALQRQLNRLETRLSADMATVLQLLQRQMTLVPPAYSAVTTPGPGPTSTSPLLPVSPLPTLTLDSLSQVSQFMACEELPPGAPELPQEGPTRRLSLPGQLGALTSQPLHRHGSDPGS

| SMILES | hERG current change (%, negative = inhibition) at 1uM [%] |
| --- | --- |
| COc1ccccc1Oc1coc2cc(O)ccc2c1=O | 6.45 |
| Cc1ccc(Cc2c(C)nc3nc(SCC(=O)N4CCC5(CC4)OCCO5)nn3c2C)cc1 | -14.5 |
| NC1=NC(=O)S/C1=C\c1ccc(O)cc1 | 11.4 |
| COc1ccccc1NC(=O)COC(=O)c1cnccn1 | 14.9 |
| CCOc1cc(-c2c(C#N)c(=O)[nH]c3c2c(C)nn3-c2ccc(F)cc2)ccc1O | 13.8 |
| O=C(C1CCC1)N1CCc2cc(S(=O)(=O)N3CCc4ccccc4C3)ccc21 | 10.3 |
| O=C(O)c1ccc(NC(=S)Nc2ccccc2)cc1 | 11.4 |
| N#Cc1c(N)[nH]c(=S)c(C#N)c1-c1ccccc1 | 9.67 |
| NC(=O)c1ccc2c(=O)n3c(-c4cc(Cl)c(N)c(Cl)c4)csc3nc2c1 | 0.694 |
| O=C(NNC(=O)c1cccnc1)NC1CCCCC1 | 19.2 |
| COc1ccc(N=C2NC(=O)C(CO)(CO)S2)cc1 | 8.51 |
| COCCCn1c(SCC(=O)NCc2ccco2)nc2sc3c(c2c1=O)CCC3 | -17.9 |
| Nc1ccc2nc(SCC(=O)N3CCN(c4ccccc4)CC3)sc2c1 | 11 |
| O=C(NC1CCCC1)C(c1ccsc1)N(CCc1ccccc1)C(=O)Cc1cccs1 (centres unmarked) | 14.8 |
| O=[N+]([O-])c1ccc2nc(CCCc3nc4ccc([N+](=O)[O-])cc4[nH]3)[nH]c2c1 | 1.17 |
| Cc1ccc(S(=O)(=O)NNC(=O)Nc2ccccc2F)c(C)c1 | 3.11 |
| CC1C2NC(=O)N(Cc3ccccc3)C1(C)Oc1ccccc12 (centres unmarked) | 6.37 |
| O=C(COC(=O)/C=C/c1cccc([N+](=O)[O-])c1)NCC1CCCO1 (centres unmarked) | 4.41 |
| CCC(C)N(C(=O)c1csnn1)C(C(=O)NC1CCCC1)c1ccc(F)cc1 (centres unmarked) | 2.92 |
| O=C(N/N=C\c1cccc(Cl)c1)c1ccc(Cn2cc(Br)c([N+](=O)[O-])n2)o1 | -20.8 |
| O=C(COC(=O)Cn1cnc2ccccc21)NCCc1ccccc1 | 6.43 |
| O=C1C2CCCN2C(=O)N1CCCN1CCN(c2ccc([N+](=O)[O-])cc2)CC1 (centres unmarked) | -63.3 |

| SMILES | hERG current change (%, negative = inhibition) at 1uM [%] |
| --- | --- |
| Cc1ccccc1N=Nc1c(O)[nH]c2ccccc12 | 10.5 |
| COc1ccc(NC(=O)CN(C)CC(=O)c2[nH]c(C)c(C(C)=O)c2C)cc1 | 3.25 |
| O=C(Nc1cccc(C(=O)N2CCCc3ccccc32)c1)c1ccccc1 | 4.91 |
| Cc1ccccc1C(=O)NC1CCN(CC(=O)Nc2ccccc2)CC1 | 5.41 |
| CN(c1ccc(F)cc1)S(=O)(=O)c1ccc(Cl)c(C(=O)Nc2ccc3c(c2)CCC3)c1 | 7.66 |
| COC(=O)c1ccc(C(=O)OC)c(NC(=O)C(C)C)c1 | 8.67 |
| COc1ccc(NC(=O)c2ccccc2NC(=O)c2ccccc2C(=O)O)c(OC)c1 | 20.1 |
| CCOC(=O)c1cc(C)sc1/N=C/C1C(=O)CCCC1=O | 7.95 |
| COc1ccc(C(=O)NCc2nnc(SCC(=O)c3ccccc3)o2)cc1 | 15.3 |
| Cc1ccc(C)c(S(=O)(=O)N2CCCC2CNC(=O)c2ccc([N+](=O)[O-])cc2)c1 (centres unmarked) | -45.8 |
| COc1ccc(CNC(=O)c2cc(=O)c3ccc(C)c(C)c3o2)cc1 | 13.6 |
| CCC(C)NC(=O)c1cn(CC)c2ccc(S(=O)(=O)N(C)C)cc2c1=O (centres unmarked) | 4.93 |
| COc1ccccc1N1CCN(C(=O)c2sc3ncnc(N4CCN(c5ccccn5)CC4)c3c2C)CC1 | 7.33 |
| CCOC(=O)c1ccc(N=C2SC(C(=O)NC)CC(=O)N2Cc2ccc(F)cc2)cc1 (centres unmarked) | 1.82 |
| CCN1C(=O)/C(=C\N(C)C)S/C1=N\S(=O)(=O)c1ccc(C)cc1 | 7.58 |
| CN(NS(=O)(=O)c1ccc(F)cc1)c1ncc(C(F)(F)F)cc1Cl | 0.312 |
| CC(=O)c1ccc(N2CCN(c3ccc(S(=O)(=O)NCCCN(C)C)cc3[N+](=O)[O-])CC2)cc1 | 0.801 |
| O=C(Cc1ccc(O)cc1)N/N=C/c1cccs1 | 13.4 |
| Cc1ccccc1NC(NC(=O)c1cccnc1)C(Cl)(Cl)Cl (centres unmarked) | 9.23 |
| O=C(NN(c1ccccc1)c1ccccc1)c1ccccc1F | 18.6 |
| Cl.OCCNCc1cc(Br)ccc1OCc1ccc(F)cc1 | -3.17 |
| Cc1ccccc1C(=O)N1CCC(C(=O)OCC(=O)Nc2cccc([N+](=O)[O-])c2C)CC1 | -3 |
